Source: PubChem BioAssay AID1347073 (National Center for Advancing Translational Sciences (NCATS), 2019)
Among all 45,000 compounds or so, about 200 (0.44%) were called active. About 7% were inconclusive and are not listed. Calls come from the whole dose curve; as a rule, active = well fitted activation curve with a large enough effect; inconclusive = small, poorly fitted or top-dose-only effect; inactive = no such curve, though single readings can be large or run the other way. The list shows a part of the results.

experiment: qHTS of TDP-43 Inhibitors: NCGC Sytravon Library Screen; conditions: yeast TDP-43 toxicity rescue, BacTiter-Glo growth, 24 h; series mostly up to 46.1 µM; growth rescue (activation): at the top concentration; note: nearly all actives have a fitted effect of over 55% in size; for growth rescue (activation): 0% is about no effect
Method in brief: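 TDP-43-expressing yeast, pregrown in raffinose, seeded at OD600 0.02 in galactose medium with compound for 24 hr at 30 deg C. Growth read by BacTiter-Glo luminescence, so rescue of toxicity appears as activation.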
Potency is the fitted concentration of half-maximal effect.

SMILES | growth rescue (activation) | Potency
CCC(C)C(NS(=O)(=O)c1ccc(C)cc1)C(=O)O (stereo not drawn) | inactive: 9.27% | 
CC(=O)c1ccc(Sc2nnnn2-c2ccccc2)c([N+](=O)[O-])c1 |  | active: 20 µM
CCCCC(=O)N(C)c1c(CC)nc2c(OCCC3CCCCC3)cccn12 | inactive: -6.22% | 
CCc1ccc(NC(=O)C2CCCN2C(=O)NC2CCCCC2)cc1 (stereo not drawn) | inactive: -12.2% | 
CC(CCc1ccc(O)cc1)NC1C2CC3CC(C2)CC1C3 (stereo not drawn) | inactive: 0.149% | 
COc1ccc(/C=C(/NC(=O)c2ccccc2)C(=O)N2CCC(C)CC2)cc1 | inactive: 1.72% | 
N#C/C(=C\c1ccc(-c2ccccc2Cl)o1)C(=O)Nc1nc2ccccc2s1 | inactive: 2.95% | 
CC(C)Cn1c(-c2cc(Br)ccc2F)nc2c1c(=O)[nH]c(=O)n2CC(C)C | inactive: 9.71% | 
CCCn1c(N2CCN(C(=O)/C=C/C(=O)O)CC2)nc2ccccc21 | inactive: 4.05% | 
Cn1c(-c2sc3cc(C(F)(F)F)cnc3c2-c2ccccn2)n[nH]c1=S | inactive: -0.821% | 
O=C(COc1ccc(/C=N/NC(=O)c2ccccc2O)cc1)Nc1ccccc1 | inactive: -0.0156% | 
CC(=O)c1ccc(NC(=O)CC23CC4CC(C2)CC(n2nnc(C)n2)(C4)C3)cc1 | inactive: -1.39% | 
O=C(NCCNC(=O)c1ccco1)c1ccc(Cl)c(Cl)c1 | inactive: 12.2% | 
COc1ccc2oc(=Nc3ccc(C(=O)O)cc3)c(C(=O)NCc3ccco3)cc2c1 | inactive: 0.24% | 
CCCNC(=O)C1(C)CCCN(C(=O)c2ccc(OC(F)F)cc2)C1 (stereo not drawn) | inactive: 2.55% | 
CC1CCN(C(=O)CN(c2ccccc2)S(=O)(=O)N(C)C)CC1 | inactive: 16.9% | 
CN(C(=S)NC1CCCCC1)C1(c2ccccc2Cl)CCCCC1=O (stereo not drawn) | inactive: 5.09% | 
Nc1cc(C(=O)OCC(=O)NCc2ccc(F)cc2)ccc1Cl | inactive: 1.3% | 
Cc1[nH]c2ccccc2c1C(=O)COC(=O)c1c(-c2ccccc2Cl)noc1C | inactive: 24.8% | 
CC(C)(C)C(=O)COC(=O)c1ccc(N)c([N+](=O)[O-])c1 | inactive: 15.3% | 
CC(Sc1nc2c(c(=O)[nH]1)CCCC2)C(=O)Nc1ccc(Br)cn1 (stereo not drawn) | inactive: 7.85% | 
CC1(C(=O)NS(=O)(=O)c2ccc(Cl)cc2)CCN1C(=O)Cc1ccccc1 (stereo not drawn) | inactive: 9.36% | 
Cc1cc(CN(C)C)c(O)c(C2(C)CCCCC2)c1 | inactive: 11.9% | 
COc1ccccc1N(C)S(=O)(=O)c1ccc(C(=O)Nc2ccc(C)cc2C)cc1 | inactive: 15% | 
CSc1ccccc1NC(=S)Nc1ccc(S(N)(=O)=O)cc1 | inactive: 13.6% | 
O=C(N/N=C/c1c(O)ccc2ccccc12)c1ccc[n+](CCO)c1 | inactive: -23.1% | 
COc1ccc(-c2n[nH]c(=S)n2-c2ccc3c(c2)OCCO3)cc1OC | inactive: 1.93% | 

SMILES | growth rescue (activation) | Potency
CC(=O)c1cccc(NS(=O)(=O)c2c(C)noc2C)c1 | inactive: 27.2% | 
CCCCN(C)CCN1C(=O)C2C(C(=O)Nc3ccc(Cl)cc3)C3C=CC2(O3)C1C(=O)NC1CCCCC1 (stereo not drawn) | inactive: 14.1% | 
COc1ccc(OCCCC(=O)Nc2cccc([N+](=O)[O-])c2C)cc1 | inactive: 22% | 
CN1CCN(C(=O)c2cc(=O)c3cc(Cl)cc(Cl)c3o2)CC1 | inactive: 10.6% | 
COc1ccc(OCc2nnc(SCC(=O)N3CCCC3)o2)cc1 | inactive: 17.6% | 
O=[N+]([O-])c1ccc2nc(CN3CCCCC3)[nH]c2c1 | inactive: 2.39% | 
COc1cc(NC(=S)N2CCN(c3ccccn3)CC2)cc(OC)c1 | inactive: 5.48% | 
Cc1ccccc1-n1c(SCC(=O)N/N=C/C=C/c2ccccc2[N+](=O)[O-])nc2ccccc2c1=O | inactive: -5.54% | 
O=C(C1=C(O)C(=O)N(c2nccs2)C1c1ccccc1)c1cc2ccccc2o1 (stereo not drawn) | inactive: 1.54% | 
Cc1ccc(NC(=S)N2C3CCCC2CC(NC(=O)C2CC2)C3)cc1C (stereo not drawn) | inactive: 0.758% | 
O=[N+]([O-])c1cccc(-c2nnc(SCc3cccnc3)o2)c1 | inactive: 22.8% | 
CCCC(=O)N1CCCC1(C)C(=O)Nc1ccc2c(c1)CCN2C(C)=O (stereo not drawn) | inactive: 8.34% | 
O=C(N/N=C/c1ccc2cccnc2c1)c1ccco1 | inactive: 3.89% | 
CCOc1ncccc1C(=O)OCC(=O)NC1CC1 | inactive: 13.7% | 
N#Cc1c(Nc2ccccc2)c(/C=N/NCCO)c[nH]c1=O | inactive: 10.6% | 
Cc1cc(C)n2nc(SCC(=O)N3CCC(C(=O)O)CC3)nc2n1 | inactive: 2.03% | 
COc1cc(/C=C(\C#N)C(=O)Nc2cccc(C(=O)O)c2)ccc1OCc1ccc(F)cc1 | inactive: 12.7% | 
O=C(Nc1ccc(O)cc1)c1cccc(Oc2ccc([N+](=O)[O-])cc2)c1 | inactive: 34.4% | 
Cc1n[nH]c(C)c1CCC(=O)N/N=C/c1cccs1 | inactive: 1.34% | 
C=CCN1C(=O)C2C(C(=O)NC3CCCC3)C3C=CC2(O3)C1C(=O)NC1CCCC1 (stereo not drawn) | inactive: 10.9% | 
CC(=O)NC(CC(=O)Nc1cccc(S(=O)(=O)N2CCCCC2)c1)c1ccccc1 (stereo not drawn) | inactive: 2% | 
O=C(NCC(F)(F)F)c1ccc(S(=O)(=O)Nc2ccccc2N2CCCC2)cc1 | inactive: 4.12% | 
CCC(=O)NC(=S)Nc1ccc(N2CCOCC2)cc1 | inactive: 9.61% | 
COc1ccc(/C=N/NC(=O)c2cc(=O)[nH]c3ccccc23)cc1OC | inactive: -6.06% | 
CCCn1c(SCC(N)=O)nc2c(c1=O)C1(CCCC1)Cc1ccccc1-2 | inactive: 28.8% | 
CC1CCN(Cc2c(C(=O)N/N=C/c3ccc(C(F)(F)F)cc3)nnn2-c2nonc2N)CC1 | inactive: 6.25% | 
